Data published in PubChem BioAssay AID485294 (National Center for Advancing Translational Sciences (NCATS), 2010).
“And” between values parts separate entries of the source, which are not always exact repeats. Identical values can stand only once. The campaign covered roughly 370,000 compounds. About 150 (0.041%) were called active. The shares of active, inactive and inconclusive entries below differ from those in the screen. Calls come from the whole dose curve; as a rule, active = well fitted inhibition curve with a large enough effect; inconclusive = small, poorly fitted or top-dose-only effect; inactive = flat fitted curve, though single readings scatter. Where the call is inconclusive, the potency comes from a doubtful curve fit.

What follows are compounds tested against Beta-lactamase (Escherichia coli (strain K12)) (UniProt P00811) (assay: qHTS Inhibitors of AmpC Beta-Lactamase (assay with detergent)). Details: AmpC hydrolysis of nitrocefin, absorbance 480 nm, 0.01% Triton; series mostly up to 114 µM.
Sequence of UniProt P00811 (P00811 whole entry, looked up): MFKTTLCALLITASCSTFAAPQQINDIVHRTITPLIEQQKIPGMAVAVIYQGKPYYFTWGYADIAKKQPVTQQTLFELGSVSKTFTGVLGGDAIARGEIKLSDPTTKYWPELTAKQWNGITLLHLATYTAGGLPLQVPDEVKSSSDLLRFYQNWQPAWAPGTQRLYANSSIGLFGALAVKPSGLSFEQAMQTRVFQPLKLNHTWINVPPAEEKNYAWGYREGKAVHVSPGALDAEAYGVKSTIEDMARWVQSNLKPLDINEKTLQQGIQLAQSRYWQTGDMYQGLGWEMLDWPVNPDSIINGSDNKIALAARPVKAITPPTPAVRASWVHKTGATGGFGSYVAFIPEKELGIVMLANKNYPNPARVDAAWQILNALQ
Procedure, shortened: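 20 mM phosphate pH 7.0 + 0.01% (detergent screen) or 0.0001% Triton X-100; 5.3 nM AmpC reagent; cpd preinc 15 min RT; nitrocefin (800 uM stock) to start; A480 q20 s × 4 min; Activity was normalised to no-enzyme and no-compound control wells.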
Note: nearly all actives have a fitted effect of over 25% in size.
Potency is the fitted concentration of half-maximal effect; tags give direction and shape of the fitted curve.

Which Potency does the source give for COc1ccc(OC)c(NC(=O)CSc2ccccc2)c1 here?
Its Potency is inconclusive: 0.708 µM [inhibitor, full curve, poor fit].

With CCOc1cnc(-c2c(-c3ccccc3Cl)noc2C)o1 as the compound, how does the Potency read?
Its Potency is inconclusive: 14.1 µM [inhibitor, full curve].

How did the Potency turn out when COc1cccc2nc3cc(C)c(C)cc3nc12 was run?
The Potency was “inactive”.

How did the Potency turn out when O=C(CSC1=Nc2ccccc2C2=NC(Cc3c[nH]c4ccccc34)C(=O)N12)NC1CCCCC1 (configuration not stated) was run?
The Potency was inconclusive: 2.82 µM [inhibitor, full curve, poor fit].

For CCOC(=O)N1CCN(S(=O)(=O)c2ccc(C(=O)NNc3nc4c(C)cccc4s3)cc2)CC1, which Potency is on record?
The Potency was inconclusive: 0.316 µM [inhibitor, full curve].

COc1cccc(/C=C/c2onc(C)c2S(=O)(=O)N2CCC(C(=O)NC3CCCCCC3)CC2)c1 was tested. Which Potency did it give?
Its Potency is inconclusive: 17.8 µM [inhibitor, full curve].

For CCOc1ccc2nc(NS(=O)(=O)c3ccc4c(c3)n(C)c(=O)n4C)sc2c1, which Potency is on record?
The Potency was inconclusive: 3.16 µM [inhibitor, full curve, poor fit].

How did the Potency turn out when COc1ccccc1C(C)NC(=O)CN(C)CC(=O)Nc1c(C)cccc1C (configuration not stated) was run?
The Potency was inconclusive: 0.708 µM [inhibitor, full curve, poor fit].

With O=C(NCc1ccc(F)cc1)C1CCC(CNS(=O)(=O)c2ccccc2)CC1 (configuration not stated) as the compound, how does the Potency read?
Its Potency is inconclusive: 0.631 µM [inhibitor, full curve, poor fit].

N#C/C(=C/c1ccc(-c2ccccc2)o1)c1nc(-c2cccs2)cs1 was tested. Which Potency did it give?
The Potency was inconclusive: 0.562 µM [inhibitor, full curve, poor fit].

CC(=NCc1cccnc1)c1c(O)n(-c2ccc(C)cc2)c(=O)[nH]c1=O was tested. Which Potency did it give?
Its Potency is inconclusive: 0.708 µM [inhibitor, full curve, poor fit].

How did the Potency turn out when C=CCN1C(=O)C(O)=C(C(C)=O)C1c1ccccc1F (configuration not stated) was run?
Its Potency is inconclusive: 112 µM [inhibitor, partial curve, poor fit].

With CC1(C(=O)O)CCC(C(=O)Nc2ccc(F)cc2)C1(C)C (configuration not stated) as the compound, how does the Potency read?
The Potency was inconclusive: 0.631 µM [inhibitor, full curve, poor fit].

How did the Potency turn out when COc1ccccc1C(=O)Nc1nnc(CCc2ccccc2)s1 was run?
Its Potency is inconclusive: 1.26 µM [inhibitor, full curve].

For CCOC(=O)c1cnc2nc[nH]n2c1=O, which Potency is on record?
Its Potency is inconclusive: 0.316 µM [inhibitor, full curve, poor fit].

Which Potency does the source give for CCO/C=C/C(O)(CNC(=O)COc1ccccc1F)C(F)(F)F (configuration not stated) here?
Its Potency is inconclusive: 0.631 µM [inhibitor, full curve, poor fit].

For Cc1ncc(C[n+]2csc(CCO)c2C)c(N)n1, which Potency is on record?
Its Potency is inconclusive: 7.94 µM [inhibitor, full curve, poor fit].

How did the Potency turn out when COCCn1c(=NC(=O)/C=C/c2ccccc2Cl)sc2cc(NC(C)=O)ccc21 was run?
The Potency was inconclusive: 2.82 µM [inhibitor, full curve, poor fit].

With CC(=O)N1CCN(c2ccc(NC(=O)c3ccc([N+](=O)[O-])cc3Cl)cc2)CC1 as the compound, how does the Potency read?
The Potency was “inactive”.

With CN(Cc1ccco1)C(=O)Cn1c(=O)oc2cc(S(=O)(=O)NCc3ccccc3)ccc21 as the compound, how does the Potency read?
Its Potency is inconclusive: 1 µM [inhibitor, full curve, poor fit].

With CCC(=O)N1CC(=O)Nc2ccc(F)cc2C1c1ccccc1 (configuration not stated) as the compound, how does the Potency read?
Its Potency is inconclusive: 6.31 µM [inhibitor, full curve, poor fit].

Which Potency does the source give for Cc1cc(C)n(C(=O)CNC(=O)Cc2ccccc2)n1 here?
Its Potency is inconclusive: 15.8 µM [inhibitor, full curve, poor fit].

How did the Potency turn out when Cc1ccc(NC(=O)c2cc3c(s2)CCCC3)cc1 was run?
The Potency was “inactive”.

Cc1ccc(-n2nnc(-c3ccnc4ccccc34)n2)cc1 was tested. Which Potency did it give?
The Potency was “inactive”.

CC(=O)Nc1ccc(OS(=O)(=O)c2c(C)cc(C)cc2C)cc1 was tested. Which Potency did it give?
The Potency was inconclusive: 89.1 µM [inhibitor, single point].

Which Potency does the source give for O=C(Nc1nnc(Cc2ccccc2)s1)c1cccs1 here?
The Potency was “inactive”.

How did the Potency turn out when O=C(Nc1ccc(Oc2ccccc2)cc1)C1CCCO1 (configuration not stated) was run?
Its Potency is inconclusive: 3.98 µM [inhibitor, full curve, poor fit].

For COc1ccc(S(=O)(=O)Nc2ccccc2C(=O)Nc2nc(-c3ccc(F)cc3)cs2)cc1OC, which Potency is on record?
The Potency was inconclusive: 2.82 µM [inhibitor, full curve, poor fit].

How did the Potency turn out when COc1ccc2c(c1OC)C(=O)OC2c1c(O)n(Cc2ccc(F)cc2)c(=O)[nH]c1=O (configuration not stated) was run?
Its Potency is inconclusive: 0.631 µM [inhibitor, full curve, poor fit].

How did the Potency turn out when COC(=O)c1ccc(N2CCC(C)CC2)c(N)c1 was run?
Its Potency is inconclusive: 100 µM [inhibitor, single point].

Which Potency does the source give for CCCCOc1ccc(N2CC(C(=O)NCCc3ccc(OC)c(OC)c3)CC2=O)cc1 (configuration not stated) here?
The Potency was inconclusive: 79.4 µM [inhibitor, single point].

With Cc1ccccc1-c1nnn(CC(=O)NCc2ccc3c(c2)OCO3)n1 as the compound, how does the Potency read?
Its Potency is “inactive”.

How did the Potency turn out when Nc1ccc(-c2nc3ccc(C(=O)O)cc3s2)cc1 was run?
Its Potency is “inactive”.

Fc1ccccc1COc1ccc(/C=N/n2cnnc2)cc1 was tested. Which Potency did it give?
Its Potency is inconclusive: 0.562 µM [inhibitor, full curve, poor fit].

For COc1cccc(C(=O)Nc2c(C)n[nH]c2C)c1, which Potency is on record?
Its Potency is inconclusive: 0.708 µM [inhibitor, full curve, poor fit].

How did the Potency turn out when COc1ccc(NC(=O)C(=O)NCCN2CCN(C(=O)c3ccc(C)cc3)CC2)cc1 was run?
The Potency was inconclusive: 12.6 µM [inhibitor, full curve].

Which Potency does the source give for CCOC(=O)c1c(NC(=O)CN2C(=O)NC3(CCCCC3C)C2=O)sc(C)c1CC (configuration not stated) here?
Its Potency is inconclusive: 12.6 µM [inhibitor, partial curve].

With CC1CCc2c(sc(NC(=O)c3ccc(Cn4cc([N+](=O)[O-])cn4)o3)c2C#N)C1 (configuration not stated) as the compound, how does the Potency read?
Its Potency is inconclusive: 100 µM [inhibitor, single point].

Which Potency does the source give for C=CCn1c(=O)c2ccc(C(=O)NCc3ccccc3)cc2n(Cc2ccc(C)cc2)c1=O here?
Its Potency is inconclusive: 112 µM [inhibitor, partial curve, poor fit].

CC1(C)CC(=O)C=C(NC2CCCCCC2)C1 was tested. Which Potency did it give?
Its Potency is inconclusive: 44.7 µM [inhibitor, partial curve, poor fit].

COc1ccc2nc(NC(=O)C34CC5CC(CC(NC(C)=O)(C5)C3)C4)sc2c1 was tested. Which Potency did it give?
Its Potency is “inactive”.

Which Potency does the source give for CCOC(=O)CC(=O)NC(CC(=O)OC)c1ccc(C(C)C)cc1 (configuration not stated) here?
The Potency was inconclusive: 22.4 µM [inhibitor, partial curve].

How did the Potency turn out when O=C(CNC(=O)C1CCCCC1)OCn1nnc2ccccc2c1=O was run?
The Potency was inconclusive: 17.8 µM [inhibitor, full curve].

With Cc1nn(-c2ccccc2)c(C)c1/C=C/C(=O)OCC(=O)Nc1ncc(Cl)cc1Cl as the compound, how does the Potency read?
The Potency was inconclusive: 31.6 µM [inhibitor, full curve, poor fit].

For NCCCCCc1nnc(SCC(=O)Nc2cccc(Cl)c2)o1, which Potency is on record?
Its Potency is inconclusive: 56.2 µM [inhibitor, partial curve].

Which Potency does the source give for Cn1c(=O)c(-c2ccccc2)nn2c3ccccc3nc12 here?
The Potency was inconclusive: 0.562 µM [inhibitor, full curve, poor fit].

For Cc1ccc(OCCN2C(=O)c3ccccc3C2=O)cc1, which Potency is on record?
Its Potency is “inactive”.

For CCC1CCCCN1C(=O)CSc1nc(N)c(NC(=O)c2ccc(OC)c(OC)c2)c(=O)[nH]1 (configuration not stated), which Potency is on record?
The Potency was inconclusive: 3.55 µM [inhibitor, full curve, poor fit].

Which Potency does the source give for O=C(OCC(=O)N(C1CCCCC1)C1CCCCC1)c1ccco1 here?
Its Potency is inconclusive: 44.7 µM [inhibitor, partial curve, poor fit].

C#CCOCCOCCOCCNc1nc(N2CCOCC2)nc(N2CCN(C(=O)[C@H](Cc3cc4ccccc4[nH]3)n3cc([C@@H](N)Cc4ccc(O)cc4)nn3)CC2)n1 was tested. Which Potency did it give?
The Potency was “inactive”.

Cc1noc(C)c1CSCC(=O)N(C)CC(=O)Nc1ccc(Cl)cc1 was tested. Which Potency did it give?
The Potency was inconclusive: 100 µM [inhibitor, single point].

Which Potency does the source give for CC(C)(C)C(=O)/C=c1\[nH]c(=O)/c(=C\c2ccccc2F)s1 here?
The Potency was “inactive”.

Which Potency does the source give for CCOC(=O)Cn1nnc(-c2ccc(OCC(C)C)cc2)n1 here?
The Potency was inconclusive: 112 µM [inhibitor, partial curve, poor fit].

CCOc1ccc(C(=O)N(CN2CCCC2=O)c2ccc(C)cc2)cc1 was tested. Which Potency did it give?
Its Potency is inconclusive: 0.631 µM [inhibitor, full curve, poor fit].

With CCCc1ccc(C2=Nn3c(nnc3C(C)C)SC2)cc1 as the compound, how does the Potency read?
Its Potency is inconclusive: 1.41 µM [inhibitor, full curve, poor fit].

CCOc1ccc(Cc2nnc(SCC(=O)Nc3ccc(C(C)=O)cc3)[nH]c2=O)cc1 was tested. Which Potency did it give?
Its Potency is inconclusive: 89.1 µM [inhibitor, single point].

Which Potency does the source give for CC(=O)Nc1ccc(NC(=O)C(C)OC(=O)CNS(=O)(=O)c2cccc(Cl)c2)cc1 (configuration not stated) here?
The Potency was “inactive”.

For CC(=O)OCC(=O)[C@@]1(O)CC[C@H]2[C@@H]3CCC4=CC(=O)CC[C@]4(C)[C@H]3[C@@H](O)C[C@@]21C, which Potency is on record?
The Potency was inconclusive: 112 µM [inhibitor, partial curve, poor fit] and inconclusive: 56.2 µM [inhibitor, partial curve, poor fit].

Which Potency does the source give for O=C(c1cccc(F)c1)N1CCCc2ccccc21 here?
Its Potency is inconclusive: 5.62 µM [inhibitor, full curve, poor fit].

Which Potency does the source give for CCc1ccc(N2CC(C(=O)NC3=NCCS3)CC2=O)cc1 (configuration not stated) here?
The Potency was inconclusive: 3.98 µM [inhibitor, full curve, poor fit].

With O=c1cc(-c2ccccc2)nc2cc(-c3ccco3)[nH]n12 as the compound, how does the Potency read?
Its Potency is “inactive”.

With O=C(CN(Cc1ccc(F)cc1)C(=O)CCC(=O)Nc1ccccn1)NCc1ccco1 as the compound, how does the Potency read?
The Potency was inconclusive: 0.224 µM [inhibitor, full curve, poor fit].
